# Test results as given in PMC4336329 (PLoS ONE, 2015).
# Among all 310,000 compounds or so, about 2,200 (0.71%) showed an effect of 50% or more. The effect is printed as a negative number. This is one part of the list.
# Target: human ether-à-go-go-related gene (hERG) potassium channel (human, UniProt Q12809)
# Assay: primary screen, population patch clamp on CHO cells stably expressing hERG
# Chain of human ether-à-go-go-related gene (hERG) potassium channel (Q12809 whole entry, looked up): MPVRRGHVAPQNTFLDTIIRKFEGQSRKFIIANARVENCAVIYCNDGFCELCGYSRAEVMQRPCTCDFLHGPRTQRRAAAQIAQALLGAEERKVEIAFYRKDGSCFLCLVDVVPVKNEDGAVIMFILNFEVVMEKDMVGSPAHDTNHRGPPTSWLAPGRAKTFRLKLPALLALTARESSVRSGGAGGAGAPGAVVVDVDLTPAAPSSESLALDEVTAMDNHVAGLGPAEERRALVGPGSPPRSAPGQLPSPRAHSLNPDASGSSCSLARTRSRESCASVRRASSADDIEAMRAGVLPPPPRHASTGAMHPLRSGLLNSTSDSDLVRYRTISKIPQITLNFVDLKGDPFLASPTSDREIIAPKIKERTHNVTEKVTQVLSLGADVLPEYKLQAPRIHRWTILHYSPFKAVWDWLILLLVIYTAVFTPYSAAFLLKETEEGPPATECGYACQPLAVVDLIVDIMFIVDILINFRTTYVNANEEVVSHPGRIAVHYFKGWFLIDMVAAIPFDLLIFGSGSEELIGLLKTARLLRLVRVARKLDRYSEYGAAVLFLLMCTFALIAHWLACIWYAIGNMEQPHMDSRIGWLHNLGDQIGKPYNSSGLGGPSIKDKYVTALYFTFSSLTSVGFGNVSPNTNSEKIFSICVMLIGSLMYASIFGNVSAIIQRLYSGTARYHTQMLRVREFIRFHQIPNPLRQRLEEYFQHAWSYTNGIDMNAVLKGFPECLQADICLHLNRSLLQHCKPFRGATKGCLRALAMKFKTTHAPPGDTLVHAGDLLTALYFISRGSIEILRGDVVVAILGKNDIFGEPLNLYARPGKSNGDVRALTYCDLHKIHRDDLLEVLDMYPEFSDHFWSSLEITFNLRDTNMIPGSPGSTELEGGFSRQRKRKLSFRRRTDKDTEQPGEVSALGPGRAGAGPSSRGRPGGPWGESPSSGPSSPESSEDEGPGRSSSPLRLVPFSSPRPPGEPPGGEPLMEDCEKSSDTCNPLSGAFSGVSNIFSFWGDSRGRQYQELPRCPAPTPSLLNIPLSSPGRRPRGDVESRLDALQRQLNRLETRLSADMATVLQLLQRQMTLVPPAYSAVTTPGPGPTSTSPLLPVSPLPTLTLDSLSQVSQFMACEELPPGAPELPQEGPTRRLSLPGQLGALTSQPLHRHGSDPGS
row,SMILES,"hERG current change (%, negative = inhibition) at 1uM [%]"
1,COc1cccc(C(=O)Nc2nnc(-c3cccs3)o2)c1,15.9
2,CCCN1C(=O)/C(=C/c2cc(C)n(C)c2C)SC1=Nc1ccc(OCC)cc1,13.8
3,Cc1c(Cl)c(C(=O)NNC(=S)Nc2ccc(F)cc2)nn1C,16.3
4,COc1ccccc1Oc1ccc2c(c1)C(=O)N(CC1CCCO1)C2=O (stereo not drawn),10.9
5,Cc1ccc(NC(=O)N2CCCN(C(=O)OC(C)(C)C)CC2)cc1Cl,14.5
6,Cc1nc(SCC(=O)NCC2CCCO2)c2cc(-c3ccccc3)sc2n1 (stereo not drawn),2.82
7,CCCc1cc(=O)n2[nH]c(C(F)(F)F)nc2n1,5.3
8,Cc1ccc(NC(=S)c2ccc(N(C)C)cc2)cc1,21
9,CNC(=O)Oc1ccc(-c2cn3cc(Cl)ccc3n2)cc1,1.3
10,COc1ccc(-n2nc(C(=O)NCC(=O)NC3CCCC(C)C3C)c3ccccc3c2=O)cc1 (stereo not drawn),14.3
11,O=C1CN(C(=O)CSc2nnc(C3CC3)n2-c2ccccc2)c2ccccc2N1,1.46
12,CC(C(=O)NC1CCCCC1)N1C(=O)C2C3C=CC(C3)C2C1=O (stereo not drawn),7.93
13,COc1cccc(C(=O)Nc2cccc(-c3nnc(-c4ccco4)o3)c2)c1,-1.01
14,CC(C)(CNC(=O)c1cccc(F)c1)CNC(=O)c1cccc(F)c1,12.4
15,CCCC(O)(c1ccccc1)C(CN1CCOCC1)c1ccccc1.Cl (stereo not drawn),12.1
16,CCCC(=O)Nc1sc2c(c1C#N)CCCC2,13.5
17,CCN(CC)S(=O)(=O)N1CCC(C(=O)NCc2ccco2)CC1,7.53
18,Cc1cc(C)cc(N(CC(=O)NCC2CCCO2)C(=O)CCC(=O)Nc2cc(C)on2)c1 (stereo not drawn),13.9
19,COC(=O)c1cc(OC)c(OC)cc1NC(=O)CCNC(=O)c1ccco1,12.8
20,Cc1c(Cl)cccc1NC(=O)CNc1cccc(S(=O)(=O)N(C)C)c1,4.67
21,CC1(C)CC(NC(=O)c2ccccn2)CC(C)(C)N1O.Cl,14.7
22,Cc1ccc(S(=O)(=O)N(CCC(=O)NCc2ccccc2F)c2ccccc2)cc1,8.11
23,COc1ccc2c(c1)OC[C@H]1[C@H]2N2C(=O)CN(Cc3ccc(Cl)cc3)C(=O)[C@@]2(C)[C@H]1c1ccccc1,13.6

row,SMILES,"hERG current change (%, negative = inhibition) at 1uM [%]"
1,COc1ccccc1Nc1nnc(SCC2CCCCO2)s1 (stereo not drawn),6.13
2,O=C(Cn1cc([N+](=O)[O-])cn1)N1CCN(c2ccccc2)CC1,13.8
3,CCOC(=O)C1CCN(c2c(Nc3cc(C)cc(C)c3)c(=O)c2=O)CC1,-1.37
4,CCC(C)Sc1cccc(-c2nc3cc(C)ccn3c2NCc2ccccc2)c1.O=C(O)C(F)(F)F (stereo not drawn),10.8
5,Cc1ccc(NCc2ccccc2O)cc1,15.5
6,CCOC(=O)c1cnc2c(C)cccc2c1Nc1ccc(N2CCOCC2)cc1,10
7,Cc1c(N=Cc2c(O)n(CCc3ccccc3)c(=O)[nH]c2=O)c(=O)n(-c2ccccc2)n1C,-5.62
8,CC(=O)c1cccc(N(C(=O)c2ccco2)C(C(=O)NC2CCCC2)c2cccs2)c1 (stereo not drawn),8.92
9,O=C(CN(Cc1ccccc1)C(=O)c1csnn1)NCc1ccccc1,20.2
10,O=c1cc(N2CCCCC2)c2ccccc2o1,2.5
11,O=C(CSc1nc(Nc2ccccc2)nc(N2CCOCC2)n1)N1CCCC1,-5.6
12,Cn1cc(C2=C(c3ccc(Cl)cc3Cl)C(=O)NC2=O)c2ccccc21,38
13,COc1ccc(C(=O)N/C(=C\c2cc(OC)c(OC)cc2[N+](=O)[O-])C(=O)NCCO)cc1,7.21
14,CC1CCN(C2=NC(=O)/C(=C/c3cn(-c4ccccc4)nc3-c3cccc(S(=O)(=O)N(C)C)c3)S2)CC1,-2.11
15,CC1CCCCC1NC(=O)/C(C#N)=C/C=C/c1ccccc1[N+](=O)[O-] (stereo not drawn),7.34
16,CCOC(=O)c1c(N)ssc1=S,-5.03
17,COC(=O)c1sc(=S)n(-c2ccccc2OC)c1N,0.775
18,O=C(Nc1ccc(Br)cc1)c1nn(C23CC4CC(CC(C4)C2)C3)cc1Br,9.75
19,CSC(=Nc1cccc(C)c1)NC#N,13.2
20,O=C(N/N=C/c1sc(=O)n(-c2ccccc2)c1Cl)c1ccccc1,2.05
21,COc1cc(C)ccc1OCCCOc1ccccc1Br,12.3
22,COc1ccccc1/C=C/C1(C(=O)NC2CCCC2)CC(=O)N1c1ccc(C)cc1 (stereo not drawn),-1.18
23,CC(C)CN1CCN(Cc2cccn2-c2ccc(Cl)cn2)CC1CCO (stereo not drawn),-20.6

row,SMILES,"hERG current change (%, negative = inhibition) at 1uM [%]"
1,CCCC(=O)Nc1ccccc1NC(=O)c1cc(OC)c(OC)c(OC)c1,14.3
2,Cc1cccc(C)c1OCCOC(=O)c1n[nH]c2ccccc12,-1.07
3,COC(=O)CN1C(=S)N(Cc2ccccc2)C(=O)C1CC(=O)Nc1ccc(OC)cc1 (stereo not drawn),-3.35
4,O=C1N=C2SCCN2/C1=C\c1ccccc1Cl,5.64
5,Cc1ccc(S(=O)(=O)N(C)C)cc1NC(=O)COC(=O)C1CCCC1,-0.454
6,CC(C)C(C)NC(=O)CN1C(=O)NC(c2ccccc2)(c2ccccc2)C1=O (stereo not drawn),7.23
7,CC12CCC(C(=O)NCCCN3CCOCC3)(OC1=O)C2(C)C (stereo not drawn),14.4
8,CC1c2ccsc2CCN1C(=O)NC(=O)c1ccc(Cl)cc1 (stereo not drawn),8.35
9,CCCCC(NC(=O)Cc1c(C)c2cc3c4c(oc3c(C)c2oc1=O)CCCC4)C(=O)O (stereo not drawn),12
10,CN1CCC(N(C)C(=O)CCc2nc3ccccc3c(=O)[nH]2)CC1,7.32
11,CCOC(=O)Cc1csc(N/N=C/c2ccccc2)n1,4.06
12,COc1cc2c(cc1OC)CN(Cc1ccc(OC)c(C)c1OC)CC2,-18.8
13,CCOC(=O)Cc1csc(NC(=O)c2ccc(Cl)s2)n1,7.13
14,O=C(COc1ccccc1)NCC(=O)Nc1ccncc1,-0.475
15,NC1=NC[C@H](c2ccccc2)N1CC1CCCCC1,8.49
16,Cl.O=C(O)c1cccc(Nc2nc(-c3cccnc3)nc3ccccc23)c1,1.54
17,O=C(NNC(=O)C1CC1)c1cccc([N+](=O)[O-])c1,6.05
18,O/C=c1\ccc2cccc3nc(C(F)(F)F)nc1c23,11.8
19,O=C1OC(N2CCN(c3ccccn3)CC2)c2ccccc21 (stereo not drawn),10
20,COc1ccc(OC)c(C2CC(=O)N3CN(c4ccc(C)c(Cl)c4)CSC3=C2C#N)c1 (stereo not drawn),13.3
21,FC(F)(F)c1nnc(-c2ccccc2)nc1Sc1ccc(Cl)cc1,15.5
22,CCOC(=O)C1CCCN(S(=O)(=O)c2ccc3c4c2CC(=O)N4CC(C)S3)C1 (stereo not drawn),14.3
23,NNC(=O)C(=O)Nc1ccc(O)cc1,8.1

row,SMILES,"hERG current change (%, negative = inhibition) at 1uM [%]"
1,CCCc1cc(=O)oc2c(C)c3occ(C)c3cc12,2.66
2,OCCNc1ncnc2c1cnn2Cc1ccccc1,10.3
3,Cc1ccc(C2=NN(CCC(=O)NCCCN3CCOCC3)C(=O)CC2)cc1,-9.94
4,CC1(C)Cc2c(c(N3CCOCC3)nc3sc4c(NCc5ccco5)nnnc4c23)CS1,11.5
5,O=C(CSc1nnc(-c2ccccn2)o1)Nc1cccc(Cl)c1,10.2
6,CCCCOCCCNC(=O)N[C@@H](CCSC)C(=O)OC,21
7,CC(=O)N1CCN(C(=O)/C(C#N)=C/c2ccc3c(c2)OCO3)CC1,15.2
8,COc1cccc(NC(=O)Nc2cc(C(=O)O)ccc2C)c1,13.4
9,CC1(C)CC(=O)C=C(NNC(=O)OC(C)(C)C)C1,17.5
10,Cc1cc(OC(=O)c2c(F)cc(F)cc2F)nc(C)n1,14.9
11,Cc1cc(-c2nnc(SCC(=O)Nc3ccc(C(F)(F)F)cc3)n2C)no1,10
12,COCCN1C(=O)C(=O)/C(=C(/O)c2ccc(S(=O)(=O)N3CCOCC3)cc2)C1c1cccc(Cl)c1 (stereo not drawn),9.26
13,COc1ccc(NC(=O)CN(C)C(=O)C2CC(=O)N(c3ccc4c(c3)OCCO4)C2)cc1 (stereo not drawn),8.76
14,COc1ccc(CCNC(=O)c2ccc3c(c2)N(Cc2ccc(F)cc2)CCS3)c(OC)c1,7.24
15,CC(C)CCNc1cc(=O)n(C)c(=O)n1C,-0.61
16,Cn1c(CO)cnc1SCC(=O)c1ccc(Cl)cc1,15.3
17,O=c1ccc(-c2ccc(S(=O)(=O)N3CCN(c4cccc(Cl)c4)CC3)o2)n[nH]1,5.05
18,COc1cccc(C2/C(=C(\O)c3ccc(OC)c(OC)c3)C(=O)C(=O)N2c2cc(C)on2)c1 (stereo not drawn),10.9
19,COc1ccccc1CCNC(=O)CCn1nc(C)c2c(C)n(-c3ccccc3)nc2c1=O,11.6
20,CSC1=NP(=S)(SC)N(C)c2nc3n(c21)CCC3 (stereo not drawn),8.73
21,CCOc1cccc(/C(O)=C2/C(=O)C(=O)N(CCOC)C2c2ccncc2)c1 (stereo not drawn),7.02
